# Source: PubChem BioAssay (NCATS)
# “And” between values parts separate entries of the source, which are not always exact repeats. Equal values may be shown once. This list was built around the results that the source calls inconclusive (neither active nor inactive); the mix of calls is not that of the screen. A call without a number means that no potency is given here. For some assays here: Potencies of inconclusive entries are doubtful fits and often do not repeat. The source made the active and inactive calls. Calls come from the whole dose curve; as a rule, active = well fitted curve in the direction sought with a large enough effect; inconclusive = small, poorly fitted or top-dose-only effect, or another doubt; inactive = no such curve, though single readings can be large; an effect the other way counts as inactive or inconclusive.
# Key:
# [1] = UWB1.289 Cancer Cell Toxicity qHTS against the NCATS CANVASS Library (AID 1347347); note: nearly all actives have a fitted effect of over 60% in size; note: potency is the fitted concentration of half-maximal effect
# How it was run: (§1)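 Per well, 1000 cells; exposure 72 h with compound at 11 final concentrations; readout CellTiter-Glo luminescence.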
# [2] = HEK-293 Cancer Cell Toxicity qHTS against the NCATS CANVASS Library (AID 1347355); note: nearly all actives have a fitted effect of over 65% in size; note: potency is the fitted concentration of half-maximal effect
# How it was run: (§2)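 Luminescent ATP read-out (CellTiter-Glo, 15min at room temperature) measures survival after cells face an 11-point compound series for 72 hours at 37 degrees C/5% CO2.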
# [3] = HEK293 12hr Apoptosis Induction qHTS against the NCATS CANVASS Library (AID 1347361)
# How it was run: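 Apoptosis in HEK293 was scored as caspase-3/7 luminescence following 12 h treatment with a compound concentration series in qHTS format.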
# [4] = KB-3-1 Cancer Cell Toxicity qHTS against the NCATS CANVASS Library (AID 1347366); note: nearly all actives have a fitted effect of over 75% in size
# How it was run: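 Seed KB-3-1 cells at 500/well in DMEM with 10% FBS, add compounds, incubate 72 hr at 37C and 5% CO2, then add CellTiter-Glo and read luminescence after 10 minutes.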
# [5] = qHTS for ATAD5 Agonist screened against the NCATS CANVASS Library (AID 1347367);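 note: luciferase reporter driven by ATAD5 which rises upon DNA damage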
# How it was run: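 Step one plated reporter cells and let them acclimate 5hr. Step two pinned compounds with MMS as positive and 0.46% DMSO as negative control. After 16hr incubation, fluorescence viability then luminescence were read.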
# [6] = qHTS for Hypoxia signaling pathway (HIF-1) antagonists against the NCATS CANVASS Library (AID 1347374);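 note: HRE-bla ME-180 cells stimulated with cobalt chloride to stabilize HIF-1alpha; nearly all actives have a fitted effect of over 60% in size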
# How it was run: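 HRE-bla ME-180 cells in medium with 0.5% dialyzed FBS received compounds (11-point series) plus CoCl2 (60 uM addition stock) for 17 hrs at 37C. Beta-lactamase activity read with CCF4 (405 nm ex, 460/530 nm em); CellTiter-Glo viability measured in same wells.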
# [7] = DH5-alpha competent E. coli microbial cell viability qHTS against the NCATS CANVASS Library (AID 1347377); conditions: viability signal change, negative = cytotoxic: at 46.1 µM (top of the series)
# How it was run: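 qHTS, 11-pt; E. coli DH5-alpha, 0.2 OD; o/n 37C/5% CO2; BacTiter-Glo, 20 min RT; luminescence.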
# [8] = qHTS for Antimalaria activity screened against the NCATS CANVASS Library (AID 1347380); note: nearly all actives have a fitted effect of over 40% in size; note: potency is the fitted concentration of half-maximal effect;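 for activity change, negative = inhibition: Plasmodium falciparum strain Dd2 asexual parasites grown in red blood cells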
# How it was run: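 Dd2 strain, infected erythrocytes 2.5% Hct final / 0.3% parasitemia. 11-pt qHTS titration, 72 h, 37C, 5% O2, 5% CO2. Lysis buffer + SYBR Green, 18 h, fluorescence 485/535 nm.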
# [9] = Secretion counterscreen for inhibitors of the SERCaMP assay screened against the NCATS CANVASS Library (AID 1347390); conditions: SH-SY5Y constitutive GLuc secretion, luminescence, 20 h; activity change, negative = inhibition: at 76.6 µM (top of the series);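 note: light from luciferase secreted into medium read as a measure of general secretion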; note: potency is the fitted concentration of half-maximal effect
# How it was run: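 Counterscreen identifying compounds that disrupt secretion, using SH-SY5Y cells with a constitutively secreted Gaussia luciferase reporter. A 20 h compound exposure (top 77 uM) precedes luminescent detection with coelenterazine.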
# [10] = qHTS for activators of Nrf2/ARE signaling pathway screened against the NCATS CANVASS Library (AID 1347391); note: nearly all actives have a fitted effect of over 60% in size; note: potency is the fitted concentration of half-maximal effect
# How it was run: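 Plate ARE-bla HepG2 cells at 2000/well and let them settle 5 h. Pin-transfer compounds in DMSO, incubate 16 h at 37C. Load CCF4 for 2 h at room temperature and read blue/green fluorescence.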
# [11] = qHTS for inhibitors of ER calcium dysfunction: SERCaMP assay screened against the NCATS CANVASS Library (AID 1347393); conditions: SH-SY5Y GLuc-SERCaMP (Gaussia luciferase released on ER calcium loss) secretion, thapsigargin, luminescence; activity change, negative = inhibition: at 76.6 µM (top of the series) unless noted; note: potency is the fitted concentration of half-maximal effect; nearly all actives have a fitted effect of over 40% in size
# How it was run: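 Thapsigargin-induced ER calcium depletion drives GLuc-SERCaMP secretion from SH-SY5Y cells; compounds given 16 h beforehand were scored by lowered coelenterazine luminescence after 4 h challenge.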
# [12] = Viability qHTS for inhibitors of the SERCaMP assay screened against the NCATS CANVASS Library (AID 1347400); note: potency is the fitted concentration of half-maximal effect; nearly all actives have a fitted effect of over 70% in size
# How it was run: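 SH-SY5Y SERCaMP MJH297 cells, 1000/well; 4 h settle, 37C/5% CO2; pin-transferred cpds; 48 h; CellTiter-Glo lum. Pos ctrl bortezomib 0.0001 - 4.6 uM.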
# [13] = qHTS to identify inhibitors of the type 1 interferon - major histocompatibility complex class I in skeletal muscle: primary screen against the NCATS LOPAC collection (AID 1347405);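 note: lytic HiBiT luminescence reporting HLA-B protein level; potency is the fitted concentration of half-maximal effect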
# How it was run: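 Luminescence from HiBiT fused to endogenous HLA-B in CRISPR-engineered human myoblasts served as the read-out. Cells received 4.0 ng/ml IFN-beta plus compound (seven concentrations, 1:4.3 steps, highest 46 uM final) for 24 hrs before lytic detection.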
# [14] = SW1088 Cancer Cell Toxicity qHTS against the NCATS CANVASS Library (AID 1347350); note: nearly all actives have a fitted effect of over 75% in size
# How it was run: as §1
# [15] = A2780 Cisplatin Sensitive Ovarian Cancer Cell Toxicity qHTS against the NCATS CANVASS Library (AID 1347353); note: nearly all actives have a fitted effect of over 60% in size
# How it was run: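 Luminescent ATP content (ATPLite, 10 min at room temperature) served as the read-out after cells had been exposed to compounds for 72 hours at 37 °C. Dosing followed an 11-point concentration series.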
# [16] = SDT Cancer Cell Toxicity qHTS against the NCATS CANVASS Library (AID 1347365); note: nearly all actives have a fitted effect of over 60% in size; note: potency is the fitted concentration of half-maximal effect
# How it was run: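 qHTS, SDT dog glioma line, 500 cells/well; cpds 11 pts; 72 hr, 37C, 5% CO2; CellTiterGlo ATP luminescence.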
# [17] = qHTS for Inflammasome Signaling Inhibitors: IL-1-beta AlphaLISA screen against the NCATS CANVASS Library (AID 1347379);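 note: human THP-1 cells primed with LPS then triggered with ATP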
# How it was run: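 THP-1 cells pretreated 1 hr with compound (up to 57.5 uM final), then stimulated with LPS (250 ng/mL final) and ATP (1.25 mM final). Secreted IL-1B measured by AlphaLISA after 16 hr; glyburide as positive control.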
# [18] = Panc-1005 Cancer Cell Toxicity qHTS against the NCATS CANVASS Library (AID 1347349); note: nearly all actives have a fitted effect of over 60% in size
# How it was run: as §1
# [19] = UWB1.289-WTBRCA1 Cancer Cell Toxicity qHTS against the NCATS CANVASS Library (AID 1347354)
# How it was run: as §2
# [20] = tested on: NAD(P)H diaphorase (Clostridium kluyveri); test: Diaphorse counterscreen qHTS: Assay Interference Panel against the NCATS CANVASS Library (AID 1347362)
# How it was run: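 Counterscreen for coupling-enzyme interference: resorufin fluorescence from resazurin/NADH turnover, read after 5 min at room temperature. Compounds were tested over an 11-point series after 15 min dark preincubation with diaphorase in PBS-Tween.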
# [21] = qHTS for inhibitors of Wild type Zika virus screened against the NCATS CANVASS Library (AID 1347396);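 note: ATP luminescence of surviving cells so rescue from viral cell killing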
# How it was run: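 Vero 766 (African green monkey) cells, 1000 per well, attached overnight, then compounds were added in an 11-point series before wild-type Zika virus infection. After 72 h at 37C, cell viability was read as CellTiter Glo luminescence.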
# Tags give direction and shape of the fitted curve.
structure (smiles),measurement,setting,value
C[C@@H]1C[C@H]2C[C@]3(CCCCN3C)[C@@H]3C[C@H]2[C@H](C1)N(C)C3,Potency,[1],inactive
same,Potency,[2],"inconclusive: 16.6 µM [cytotoxic, partial curve]"
same,Potency,[3],inactive
same,Potency,[4],inactive
same,Potency,[5],inactive
same,Potency,[6],inactive
same,Potency,[7],inactive
same,Potency,[8],"inconclusive: 2.98 µM [cytotoxic, full curve, poor fit]"
same,"activity change, negative = inhibition",[9],inconclusive: -37.8% [inhibitor]
same,Potency,[10],"inconclusive: 1.17 µM [activator, single point]"
same,Potency,[11],active: 30.5 µM
same,Potency,[12],"inconclusive: 24 µM [cytotoxic, partial curve, poor fit]"
Nc1nc(OCC2CCCCC2)c2[nH]cnc2n1,Potency,[13],"inconclusive: 35.5 µM [inhibitor, single point]"
CC1=CC[C@@]2(C[C@@H]1O)[C@@H](C(=O)O)CC[C@H]2C(C)C,Potency,[14],inactive
same,Potency,[15],inactive
same,Potency,[2],inactive
same,Potency,[16],inactive
same,Potency,[9],inactive
same,Potency,[11],"inconclusive: 60.9 µM [inhibitor, single point]"
C=C(C)[C@@H]1CC[C@]2(C)CC[C@]3(C)[C@H](CC[C@@H]4[C@@]5(C)CC[C@H](O)C(C)(C)[C@@H]5CC[C@]43C)[C@@H]12,Potency,[1],"inconclusive: 6.66 µM [cytotoxic, partial curve] and inconclusive: 8.38 µM [cytotoxic, single point]"
same,Potency,[17],inactive
O=C(O)CC1OCc2c(O)cccc21 (stereo not given),Potency,[18],inactive
same,Potency,[15],inactive
same,Potency,[19],inactive
same,Potency,[6],inactive
same,Potency,[8],inactive
same,Potency,[9],"inconclusive: 0.193 µM [inhibitor, partial curve, poor fit]"
same,Potency,[10],inactive
C=C1[C@H]2CC[C@@]3(C=CC(=O)[C@@](C)(CCC(=O)Nc4c(O)ccc(C(=O)O)c4O)C3C2)[C@H]1O (stereo not given in full),Potency,[18],inactive
same,Potency,[19],inactive
same,Potency,[20],inactive
same,Potency,[16],"inconclusive: 37.2 µM [cytotoxic, single point]"
same,Potency,[9],inactive
same,Potency,[10],inactive
same,Potency,[21],inactive
